Target: T1, human fMLP receptor (cDNA of Boulay et al. in vector pRK5) (human, UniProt P21462 1-350)
T1 construct: whole, on cells
T1 sequence (looked up): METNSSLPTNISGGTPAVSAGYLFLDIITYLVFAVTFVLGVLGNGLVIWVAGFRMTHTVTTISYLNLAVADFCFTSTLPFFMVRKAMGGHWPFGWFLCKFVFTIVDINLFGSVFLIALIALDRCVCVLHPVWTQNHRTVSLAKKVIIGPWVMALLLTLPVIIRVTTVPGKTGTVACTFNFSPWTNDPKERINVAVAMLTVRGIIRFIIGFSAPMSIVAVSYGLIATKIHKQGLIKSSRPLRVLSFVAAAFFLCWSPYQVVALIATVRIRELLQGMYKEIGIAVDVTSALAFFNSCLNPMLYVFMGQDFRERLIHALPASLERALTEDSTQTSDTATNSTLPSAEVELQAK
Assay: radioligand binding to transfected cells

- binding result: no binding
B1: human 72 amino acid IL-8 (interleukin-8), recombinant, made in E. coli (ligand)
chain: not shown
notes: mature; no residue limits are printed; also called rHuIL-8
